Experimental data: PubChem BioAssay (NCI)
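Tested at 5 concentrations; 48 h exposure; 96-well plates; endpoints linearly interpolated, else capped at highest concentration. The concentration for 50% growth inhibition is given as GI50. TGI: concentration producing complete growth inhibition.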 Peptide text beside a SMILES is read from it. * marks the point of attachment. Boc = CC(C)(C)OC(=O)*; OBn = c1ccc(CO*)cc1

What follows are molecules tested on NCI-H322M lung (assay: inhibition of tumour cell growth, NCI panel, 48 h).

SMILES	GI50	TGI
c1cncc(C2Nc3cccc4cccc(c34)N2)c1	> 100000 nM	> 100 µM
Cc1cccc(N2C(=O)C(=O)C(c3nc4ccccc4s3)/C(=N/NC(=S)NN)C2=O)c1C (configuration not stated)		> 100 µM
O=[N+]([O-])C(=C1Nc2ccccc2N1)/C(Cl)=C(/Cl)N1CCOCC1		> 100 µM
Cc1cc(N2CCCC2)nc(NCc2cc(Nc3ccnc4cc(Cl)ccc34)ccc2F)n1	1210 nM	2.6 µM
O=C1Nc2ccccc2/C1=C\c1nc(C2CCN(S(=O)(=O)c3ccc(F)cc3)CC2)n2ccccc12	2810 nM	> 100 µM
COc1ccc2c(c1)CCCN2S(=O)(=O)c1ccccc1[N+](=O)[O-]		> 100 µM
CN[C@@H](C)[C@H](N)c1ccccc1		> 100 µM
O=C(N/N=C/c1ccccc1O)c1ccccc1Nc1ccccc1C(=O)N/N=C/c1ccccc1O		> 79 µM
CCc1cc2ncc(CN3CCN(c4ccc(C(=O)NC)nc4)CC3)cc2[nH]c1=O	> 100000 nM	> 100 µM
C[C@]1(Cn2ccnn2)C(C(=O)O)N2C(=O)CC2S1(=O)=O (some centres not stated)	> 100000 nM	> 100 µM
COc1cc(N2CCN(C(C)C)CC2)ccc1Nc1nc(Nc2cccc(F)c2C(=O)O)c2cc[nH]c2n1	> 25000 nM	> 25 µM
O/N=C(\CC(O)(C(F)(F)F)C(F)(F)F)c1cccc(Cl)c1		> 100 µM
COC(=O)C(CBr)CBr		29.9 µM
Cc1cc(=O)[nH]c(NNC(C#N)c2c(O)ccc3ccccc23)n1 (configuration not stated)		> 100 µM
O=[N+]([O-])c1ccc(/C=C/c2csnn2)cc1		> 100 µM
CCOC(=O)c1c(C)nc2c(c1N)CC(=O)N2CCc1ccccc1	4810 nM	18 µM
CN(C)S(=O)(=O)n1cnc(CO)c1		> 100 µM
O=C1C(=O)c2ccccc2C(O)=C1CCCc1ccc(C2CCCCCC2)cc1	717 nM	8.72 µM
O=C(CC1(O)C(=O)Nc2ccccc21)c1ccc(O)cc1 (configuration not stated)		> 100 µM
C=C(C)C(O)C(O)C[C@@H](C)C1CC[C@]23C[C@]12CCC1[C@@]2(C)CCC(OC(C)=O)C(C)(C)C2CC(OC2OC(CO)C(O)C(O)C2O)[C@]13C (some centres not stated)		52 µM
[O-][N+]1=NC(c2ccccc2)=C1c1ccccc1		> 50 µM
O=c1c2cc(Cl)ccc2[nH]c2cc(O)cc(O)c12		> 10 µM
Cc1nn2c(C(=O)N/N=C/c3ccc([N+](=O)[O-])cc3)c(C)nc2s1		> 100 µM

SMILES	GI50	TGI
CC(/C=C/c1ccccc1)=N\NC(N)=S		> 100 µM
O=S(=O)(c1ccccc1)n1cc(C[P+](c2ccccc2)(c2ccccc2)c2ccccc2)c2ccccc21		27.3 µM
Cc1cnc2c(c1)C(=O)C1=C(OC(C)(C)CC1O)C2=O (configuration not stated)		28.5 µM
COc1ccc(/C=c2/sc3n(c2=O)NC2(CCC(C)CC2)NN=3)cc1 (configuration not stated)		> 100 µM
CC(C)CC(NC(=O)OC(C)(C)C)C(=O)N1CCCC1C(=O)OCc1ccccc1 (stereo not drawn) (Boc-Leu-Pro-OBn; configuration not given here)		> 100 µM
CCC(=O)Nc1ccccc1C#C/C=C\C#Cc1ccccc1C(F)(F)F	2940 nM	> 50 µM
CCCCOCc1cc(CN2CCN(C)CC2)c(O)c2ncccc12		> 100 µM
NCCOc1ccccc1/C=C1\c2ccccc2-c2ccc([N+](=O)[O-])cc21	1600 nM	2.96 µM
CC(=O)ON1C(=O)c2cccc3cccc(c23)C1=O		> 100 µM
C=CC(Br)(CBr)CCC(Br)C(C)(C)Cl (configuration not stated)		8.22 µM
C=CC/C(=C\COP(=O)(OCc1ccc([N+](=O)[O-])o1)N(C)CCCCCl)CC/C=C(\C)CCC=C(C)C (configuration not stated)	138 nM	28 µM
CC(C)(C)OC(=O)C1=C2C=C(O)C=CC2(C)N(Cc2ccccc2)C1=N (configuration not stated)		30.6 µM
COC(=O)[C@]1(c2cc3ccccc3[nH]2)CC2CN(CC(=O)N(C)OC)C1CC2(OC)OC (some centres not stated)		> 100 µM
O=S1(=O)CS(=O)(=O)OCCO1		329 µM
NC(=O)C(=O)C(c1ccccc1)S(=O)(=O)Cc1ccccc1 (configuration not stated)		> 100 µM
O=[N+]([O-])c1cc(Cl)ccc1OCc1ccccc1		> 100 µM
CC(=O)C1=C(C)N(C)C2(O)C=CC(=O)C3=C(O)c4ccccc4C(=O)C312 (configuration not stated)	2970 nM	9.1 µM
C[CH2][Ge]([CH2]C)([CH2]C)[O]C(=O)CCC(=O)[O][Ge]([CH2]C)([CH2]C)[CH2]C	> 100000 nM	> 100 µM
CCN(CC)C(=O)N1CCN(C=S)CC1		> 100 µM
OCCNCCCOc1ccc2ncnc(Nc3ccc(Oc4cccc(C(F)(F)F)c4)c(Cl)c3)c2c1	1160 nM	2.55 µM
C=C(CC(=O)O)C(=O)O (tested in a mixture with another compound)	> 50 µg/mL	> 50 µg/mL
Cc1[nH]nc2c1N=C(c1ccccc1F)c1cc(C(N)=O)ccc1N2	9060 nM	> 25 µM
CC(C)(C)OC/C=C1\C(=O)O[C@H]2C[C@@H](O[Si](C)(C)C(C)(C)C)C[C@@H]12		> 100 µM
